# Experimental data as given in the supplement of paper PMC8728848.
# This is one part of the list.
# Experiments:
# Experiment in all cases: glycan array binding signal (z-score within array); higher = stronger binding
# Settings in all cases: glycan notation: IUPAC condensed, linker removed
# Gal3S(b1-4)Glc = biological target: Gal3S(b1-4)Glc
# Method in brief: (§1)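 Glycan array binding is given as a within-array Z-score, which can be read as non-binding when negative. The arrays, 3228 of them, came from the Consortium for Functional Glycomics database and were retained only where the protein sequence was available. Z-scores were averaged across arrays of the same protein sequence at different concentrations or buffers and across linkers.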
# Gal3S(b1-4)Glc6S = biological target: Gal3S(b1-4)Glc6S
# Method in brief: as §1
# Gal3S(b1-4)GlcNAc = biological target: Gal3S(b1-4)GlcNAc
# Method in brief: as §1
# [1] = biological target: Gal3S(b1-4)[Fuc(a1-3)]Glc6S
# Method in brief: as §1
# [2] = biological target: Gal3S(b1-4)[Fuc(a1-3)]GlcNAc
# Method in brief: as §1
# [3] = biological target: Gal3S(b1-4)[Fuc(a1-3)]GlcNAc6S
# Method in brief: as §1
# Gal3S4S(b1-4)GlcNAc = biological target: Gal3S4S(b1-4)GlcNAc
# Method in brief: as §1
# Gal3S6S(b1-4)GlcNAc = biological target: Gal3S6S(b1-4)GlcNAc
# Method in brief: as §1
# Gal3S6S(b1-4)GlcNAc6S = biological target: Gal3S6S(b1-4)GlcNAc6S
# Method in brief: as §1
# Gal4S(b1-4)GlcNAc = biological target: Gal4S(b1-4)GlcNAc
# Method in brief: as §1
# Gal4S6S(b1-4)GlcNAc = biological target: Gal4S6S(b1-4)GlcNAc
# Method in brief: as §1
# Gal6P(b1-4)GlcNAc = biological target: Gal6P(b1-4)GlcNAc
# Method in brief: as §1
# Gal6S(b1-3)GlcNAc = biological target: Gal6S(b1-3)GlcNAc
# Method in brief: as §1
# Gal6S(b1-3)GlcNAc6S = biological target: Gal6S(b1-3)GlcNAc6S
# Method in brief: as §1
# Gal6S(b1-4)Glc = biological target: Gal6S(b1-4)Glc
# Method in brief: as §1
# Gal6S(b1-4)Glc6S = biological target: Gal6S(b1-4)Glc6S
# Method in brief: as §1
# Gal6S(b1-4)GlcNAc = biological target: Gal6S(b1-4)GlcNAc
# Method in brief: as §1
# Gal6S(b1-4)GlcNAc6S = biological target: Gal6S(b1-4)GlcNAc6S
# Method in brief: as §1
# GalNAc(a1-3)Gal = biological target: GalNAc(a1-3)Gal
# Method in brief: as §1
# GalNAc(a1-3)GalNAc = biological target: GalNAc(a1-3)GalNAc
# Method in brief: as §1
# [4] = biological target: GalNAc(a1-3)GalNAc(a1-3)Gal(a1-4)Gal(b1-4)GlcNAc
# Method in brief: as §1
# [5] = biological target: GalNAc(a1-3)GalNAc(b1-3)Gal(a1-4)Gal(b1-4)Glc
# Method in brief: as §1
# GalNAc(b1-3)Gal = biological target: GalNAc(b1-3)Gal
# Method in brief: as §1
# [6] = biological target: GalNAc(b1-3)Gal(a1-4)Gal(b1-4)GlcNAc
# Method in brief: as §1
# [7] = biological target: GalNAc(b1-3)Gal(a1-4)Gal(b1-4)GlcNAc(b1-3)Gal(b1-4)Glc
# Method in brief: as §1
# [8] = biological target: GalNAc(b1-3)Gal(a1-6)Gal(b1-4)Glc
# Method in brief: as §1
# GalNAc(b1-3)GalNAc = biological target: GalNAc(b1-3)GalNAc
# Method in brief: as §1
# GalNAc(b1-3)GlcNAc = biological target: GalNAc(b1-3)GlcNAc
# Method in brief: as §1
# GalNAc(b1-4)Gal(b1-4)Glc = biological target: GalNAc(b1-4)Gal(b1-4)Glc
# Method in brief: as §1
# GalNAc(b1-4)GlcNAc = biological target: GalNAc(b1-4)GlcNAc
# Method in brief: as §1
# [9] = biological target: GalNAc(b1-4)GlcNAc(b1-2)Man
# Method in brief: as §1
# [10] = biological target: GalNAc(b1-4)GlcNAc(b1-2)Man(a1-3)[GalNAc(b1-4)GlcNAc(b1-2)Man(a1-6)]Man(b1-4)GlcNAc(b1-4)GlcNAc
# Method in brief: as §1
# [11] = biological target: GalNAc(b1-4)GlcNAc(b1-3)GalNAc(b1-4)GlcNAc
# Method in brief: as §1
# GalNAc(b1-4)GlcNAc6S = biological target: GalNAc(b1-4)GlcNAc6S
# Method in brief: as §1
# GalNAc(b1-6)GalNAc = biological target: GalNAc(b1-6)GalNAc
# Method in brief: as §1
# GalNAc3S(b1-4)GlcNAc = biological target: GalNAc3S(b1-4)GlcNAc
# Method in brief: as §1
# GalNAc3S(b1-4)GlcNAc3S = biological target: GalNAc3S(b1-4)GlcNAc3S
# Method in brief: as §1
# [12] = biological target: GalNAc3S(b1-4)[Fuc(a1-3)]GlcNAc
# Method in brief: as §1
# GalNAc4S6S(b1-4)GlcNAc = biological target: GalNAc4S6S(b1-4)GlcNAc
# Method in brief: as §1
# GalNAc6S(b1-4)GlcNAc = biological target: GalNAc6S(b1-4)GlcNAc
# Method in brief: as §1
# Glc(a1-4)Glc = biological target: Glc(a1-4)Glc
# Method in brief: as §1
# [13] = biological target: Glc(a1-4)Glc(a1-4)Glc(a1-4)Glc
# Method in brief: as §1
# Glc(a1-6)Glc(a1-6)Glc = biological target: Glc(a1-6)Glc(a1-6)Glc
# Method in brief: as §1
# [14] = biological target: Glc(a1-6)Glc(a1-6)Glc(a1-6)Glc
# Method in brief: as §1
# Glc(b1-4)Glc = biological target: Glc(b1-4)Glc
# Method in brief: as §1
binder,measurement,setting,value
"MPA (Maclura pomifera), P18674 (protein) GVTFDDGAYTGIREINFEYNSETAIGGLRVTYDLNGMPFVAEDHKSFITGFKPVKISLEFPSEYIVEVSGYVGKVEGYTVIRSLTFKTNKQTYGPYGVTNGTPFSLPIENGLIVGFKGSIGYWLDYFSIYLSL",glycan array binding signal (z-score),Gal3S(b1-4)Glc,-0.108
same,glycan array binding signal (z-score),Gal3S(b1-4)Glc6S,-0.112
same,glycan array binding signal (z-score),Gal3S(b1-4)GlcNAc,-0.109
same,glycan array binding signal (z-score),[1],0.049
same,glycan array binding signal (z-score),[2],-0.229
same,glycan array binding signal (z-score),[3],-0.226
same,glycan array binding signal (z-score),Gal3S4S(b1-4)GlcNAc,-0.227
same,glycan array binding signal (z-score),Gal3S6S(b1-4)GlcNAc,-0.234
same,glycan array binding signal (z-score),Gal3S6S(b1-4)GlcNAc6S,-0.22
same,glycan array binding signal (z-score),Gal4S(b1-4)GlcNAc,-0.253
same,glycan array binding signal (z-score),Gal4S6S(b1-4)GlcNAc,-0.203
same,glycan array binding signal (z-score),Gal6P(b1-4)GlcNAc,-0.561
same,glycan array binding signal (z-score),Gal6S(b1-3)GlcNAc,-0.244
same,glycan array binding signal (z-score),Gal6S(b1-3)GlcNAc6S,-0.349
same,glycan array binding signal (z-score),Gal6S(b1-4)Glc,-0.243
same,glycan array binding signal (z-score),Gal6S(b1-4)Glc6S,-0.272
same,glycan array binding signal (z-score),Gal6S(b1-4)GlcNAc,-0.181
same,glycan array binding signal (z-score),Gal6S(b1-4)GlcNAc6S,-0.25
same,glycan array binding signal (z-score),GalNAc(a1-3)Gal,-0.174
same,glycan array binding signal (z-score),GalNAc(a1-3)GalNAc,-0.381
same,glycan array binding signal (z-score),[4],-0.28
same,glycan array binding signal (z-score),[5],-0.324
same,glycan array binding signal (z-score),GalNAc(b1-3)Gal,-0.205
same,glycan array binding signal (z-score),[6],-0.161
same,glycan array binding signal (z-score),[7],-0.179
same,glycan array binding signal (z-score),[8],-0.122
same,glycan array binding signal (z-score),GalNAc(b1-3)GalNAc,-0.262
same,glycan array binding signal (z-score),GalNAc(b1-3)GlcNAc,-0.211
same,glycan array binding signal (z-score),GalNAc(b1-4)Gal(b1-4)Glc,-0.154
same,glycan array binding signal (z-score),GalNAc(b1-4)GlcNAc,-0.162
same,glycan array binding signal (z-score),[9],-0.237
same,glycan array binding signal (z-score),[10],0.805
same,glycan array binding signal (z-score),[11],-0.155
same,glycan array binding signal (z-score),GalNAc(b1-4)GlcNAc6S,-0.25
same,glycan array binding signal (z-score),GalNAc(b1-6)GalNAc,-0.326
same,glycan array binding signal (z-score),GalNAc3S(b1-4)GlcNAc,-0.277
same,glycan array binding signal (z-score),GalNAc3S(b1-4)GlcNAc3S,-0.375
same,glycan array binding signal (z-score),[12],-0.307
same,glycan array binding signal (z-score),GalNAc4S6S(b1-4)GlcNAc,-0.468
same,glycan array binding signal (z-score),GalNAc6S(b1-4)GlcNAc,-0.283
same,glycan array binding signal (z-score),Glc(a1-4)Glc,0.004
same,glycan array binding signal (z-score),[13],-0.129
same,glycan array binding signal (z-score),Glc(a1-6)Glc(a1-6)Glc,-0.165
same,glycan array binding signal (z-score),[14],-0.175
same,glycan array binding signal (z-score),Glc(b1-4)Glc,-0.149
